# Source: the supplement of paper PMC12217912
# The list shows a part of the results. Sequences were assembled here from the parent chain. Values near 0.05 are background.
# B1: TEV protease; numbered along this chain (parent)
# chain: MGESLFKGPRDYNPISSSICHLTNESDGHTTSLYGIGFGPFIITNKHLFRRNNGTLVVQSLHGVFKVKDTTTLQQHLVDGRDMIIIRMPKDFPPFPQKLKFREPQREERICLVTTNFQTKSMSSMVSDTSCTFPSGDGIFWKHWIQTKDGQCGSPLVSTRDGFIVGIHSASNFTNTNNYFTSVPKNFMELLTNQEAQQWVSGWRLNADSVLWGGHKVFMVKPEEPFQPVKEATQL
# Variants of: B1
# Test: raw area under fraction-flipped curve 0-4 h after induction (AUC4h, not background-subtracted), DNA-recorder readout of cleavage of the substrate (dimensionless); higher = more cleavage of the substrate by the protease variant
# Conditions: temperature: 34 °C; time window: 0-4 h after rhamnose induction
# 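Also: Bxb1 expression induced with 0.2% (w/v) L-rhamnose at OD600 near 0.5, cultures sampled hourly, flipped fraction per protease–substrate barcode pair counted by paired-end Illumina sequencing.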
Variant,area with substrate ENLYFCS,area with substrate ENLYFES,area with substrate ENLYFFS,area with substrate ENLYFGS,area with substrate ENLYFIS,area with substrate ENLYFMS,area with substrate ENLYFNS,area with substrate ENLYFRS,area with substrate ENLYFVS,area with substrate ENLYFWS,area with substrate ENLYFHS,area with substrate ENLYFKS,area with substrate ENLYFPS,area with substrate ENLYFTS,area with substrate ENLYFYS,area with substrate ENLYFSS,area with substrate ENLYFLS
MGESLFKGPRDYNPISSSICHLTNESDGHTTSLYGIGFGPFIITNKHLFRRNNGTLVVQSLHGVFKVKDTTTLQQHLVDGRDMIIIRMPKDFPPFPQKLKFREPQREERICLVTTNFQTKSMSSMVSDTSCTFPSGDGIFWKHWIQTKDGQCGSPLVSTRDGFIVGIHSASNFTNTNNYFTSVPKNFMELLTNQEFQQWVSGWRLNADSVLWGGHKVFMVKPEEPFQPVKEATQL [A196F],0.0554,0.0607,0.0666,0.0482,0.0392,0.0691,0.0783,0.0819,0.0913,0.0715,,,,,,,
MGESLFKGPRDYNPISSSICHLTNESDGHTTSLYGIGFGPFIITNKHLFRRNNGTLVVQSLHGVFKVKDTTTLQQHLVDGRDMIIIRMPKDFPPFPQKLKFREPQREERICLVTTNFQTKSMSSMVSDTSCTFPSGDGIFWKHWIQTKDGQCGSPLVSTRDGFIVGIHSASNFTNTNNYFTSVPKNFMELLTNQEDQQWVSGWRLNADSVLWGGHKVFMVKPEEPFQPVKEATQL [A196D],0.0243,0.0566,0.0671,,0.0558,0.07,0.0611,0.0506,0.0446,0.0505,0.062,0.0669,0.0543,0.0569,0.0565,,
MGESLFKGPRDYNPISSSICHLTNESDGHTTSLYGIGFGPFIITNKHLFRRNNGTLVVQSLHGVFKVKDTTTLQQHLVDGRDMIIIRMPKDFPPFPQKLKFREPQREERICLVTTNFQTKSMSSMVSDTSCTFPSGDGIFWKHWIQTKDGQCGSPLVSTRDGFIVGIHSASNFTNTNNYFTSVPKNFMCLLTNQEAQQWVSGWRLNADSVLWGGHKVFMVKPEEPFQPVKEATQL [E189C],0.0611,0.0669,0.0619,,0.0653,0.0558,0.0639,0.0626,0.0609,0.0568,0.0481,,0.0734,0.0565,,0.0671,
MGESLFKGPRDYNPISSSICHLTNESDGHTTSLYGIGFGPFIITNKHLFRRNNGTLVVQSLHGVFKVKDTTTLQQHLVDGRDMIIIRMPKDFPPFPQKLKFREPQREERICLVTTNFQTKSMSSMVSDTSCTFPSGDGIFWKHWIQTKDGQCGSPLVSTRDGFIVGIHSASNFTNTNNSFTSVPKNFMELLTNQEAQQWVSGWRLNADSVLWGGHKVFMVKPEEPFQPVKEATQL [Y179S],0.0559,,0.0622,,0.0605,0.0509,0.0693,,0.0487,0.0507,0.0588,0.0459,0.0549,0.0539,0.0497,,
MGESLFKGPRDYNPISSSICHLTNESDGHTTSLYGIGFGPFIITNKHLFRRNNGTLVVQSLHGVFKVKDTTTLQQHLVDGRDMIIIRMPKDFPPFPQKLKFREPQREERICLVTTNFQTKSMSSMVSDTSCTFPSGDGIFWKHWIQTKDGQCGSPLVSTRDGFIVGIHSASNFTNTNNEFTSVPKNFMELLTNQEAQQWVSGWRLNADSVLWGGHKVFMVKPEEPFQPVKEATQL [Y179E],0.0546,0.0601,0.0562,0.0574,,0.0641,0.0612,0.0581,,0.0608,0.0604,0.0523,,,0.0689,0.073,
MGESLFKGPRDYNPISSSICHLTNESDGHTTSLYGIGFGPFIITNKHLFRRNNGTLVVQSLHGVFKVKDTTTLQQHLVDGRDMIIIRMPKDFPPFPQKLKFREPQREERICLVTTNFQTKSMSSMVSDTSCTFPSGDGIFWKHWIQTKDGQCGSPLVSTRDGFIVGIHSASNFTNTNNRFTSVPKNFMELLTNQEAQQWVSGWRLNADSVLWGGHKVFMVKPEEPFQPVKEATQL [Y179R],0.0711,,0.0715,,0.0564,0.0543,0.069,0.0569,,0.0439,0.0436,,0.0345,,0.078,0.0611,0.0569
MGESLFKGPRDYNPISSSICHLTNESDGHTTSLYGIGFGPFIITNKHLFRRNNGTLVVQSLHGVFKVKDTTTLQQHLVDGRDMIIIRMPKDFPPFPQKLKFREPQREERICLVTTNFQTKSMSSMVSDTSCTFPSGDGIFWKHWIQTKDGQCGSPLVSTRDGIIVGIHSASNFTNTNNYFTSVPKNFMELLTNQEAQQWVSGWRLNADSVLWGGHKVFMVKPEEPFQPVKEATQL [F163I],0.0528,0.0678,0.0692,,0.057,0.0771,0.0701,0.0555,0.049,,,0.0609,0.0524,0.0594,0.0673,,
MGESLFKGPRDYNPISSSICHLTNESDGHTTSLYGIGFGPFIITNKHLFRRNNGTLVVQSLHGVFKVKDTTTLQQHLVDGRDMIIIRMPKDFPPFPQKLKFREPQREERICLVTTNFQTKSMSSMVSDTSCTFPSGDGIFWKHWIQTKDGQCGSILVSTRDGFIVGIHSASNFTNTNNYFTSVPKNFMELLTNQEAQQWVSGWRLNADSVLWGGHKVFMVKPEEPFQPVKEATQL [P155I],0.0611,0.056,0.0676,0.053,0.0505,0.0557,0.0636,0.0553,,,0.0483,0.0504,0.0542,0.0527,0.0577,,
MGESLFKGPRDYNPISSSICHLTNESDGHTTSLYGIGFGPFIITNKHLFRRNNGTLVVQSLHGVFKVKDTTTLQQHLVDGRDMIIIRMPKDFPPFPQKLKFREPQREERICLVTTNFQTKSMSSMVSDTSCTFPSGDGIFWKHWIQTKDGQCGSPLVSTRDGFIVGIHSASNFTNTNNYFTSAPKNFMELLTNQEAQQWVSGWRLNADSVLWGGHKVFMVKPEEPFQPVKEATQL [V183A],0.0533,0.0566,0.0502,,0.0505,0.0621,0.0661,0.0612,0.0602,0.0649,,0.0629,0.0681,0.0371,0.0526,0.0542,0.0631
